Assay results published in the supplement of paper PMC10126150.
Sequences with one replicate were seen in a single cluster, so their values are uncertain.

Test system: ATP
Assay: switch fluorescence ratio, 500 uM ATP over buffer (Cy3 cluster intensity, sum of 5 cycles each) (fold (ratio)); higher = stronger signal-on switching upon ATP binding; sequences stand for … in TCGTCGGCAGCGTCAGATGTGTATAAGAGACAGTTTTTTTTTTTTTTTTTTTTTTTTT…TC
Conditions: aptamer strand: ATP DNA aptamer (quencher-CACCTGGGGGAGTATTGCGGAGGAAGG + anchor), 100 nM annealed; ATP concentration: 500 uM; one replicate
How it was run: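 Between each of five buffer/ATP cycles, the flow-cell was stripped with NaOH and re-annealed. Each cycle imaged Cy3-labelled switching-strand clusters, annealed to 100 nM quencher-labelled ATP aptamer on a modified Illumina MiSeq flow-cell, first in selection buffer and then after 15 min with 500 uM ATP at 22 °C. The fluorescence ratio is summed target-cycle over summed buffer-cycle Cy3 intensity per cluster, averaged per switch-domain sequence, with clusters outside 100-1000 RFU excluded.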
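Also: ATP exposure 15 min at 22 °C before imaging.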

Row | Sequence | switch fluorescence ratio
1 | ACCCAAAGAT | 1.06
2 | TCCCGTAAGC | 2.92
3 | TCAAAAGCGG | 1.01
4 | AGCCTATACA | 1
5 | CAAGTTAAAA | 1.14
6 | CCCGCTTTTG | 1.13
7 | AACTGCCCTG | 1.09
8 | TTGGGCGGGC | 0.966
9 | ATGCTAATTC | 1
10 | AGTTCATGAC | 1.02
11 | ATTCTTCCGA | 1.83
12 | AAAATAAGAT | 0.965
13 | CCTTCGTGGT | 3.87
14 | GGCGGAAATA | 1.01
15 | CAATAAGGTT | 0.975
16 | AATCGAAATG | 0.974
17 | TTCTAGTCGC | 0.943
18 | GGTCGTGGGC | 0.915
19 | TTGGGTACTG | 1.27
20 | GCAAAAACAG | 0.955
21 | CGTGCGATAA | 1.54
22 | CGTGTATAT | 0.995
23 | CCATTTTCAG | 0.999

Row | Sequence | switch fluorescence ratio
24 | ATCATAACGA | 1.03
25 | CTAATGAGTA | 0.986
26 | AAGCTCCAGA | 1.01
27 | GGATTGGGTC | 0.948
28 | TATCGATGAG | 0.989
29 | ATCATGTTAA | 0.981
30 | ACCAAAAACA | 0.966
31 | TAAAATGACA | 1.06
32 | CGATTGGCAG | 0.989
33 | TTGCTGAGGT | 1
34 | CGCACTTTCG | 1.05
35 | TCTGTTGGTC | 1.55
36 | GACTCCCTCT | 1.26
37 | CCGGTTCAGC | 1.09
38 | TTTGGCTGCG | 1.04
39 | CGGTCTTGGA | 1.01
40 | TACGTAAAAT | 1.04
41 | CATATCGATT | 1.02
42 | ATATTAAATC | 0.991
43 | TTCTGTCGGC | 1.38
44 | TGGTGGACAG | 1.17
45 | AATTAAAGGC | 1.25
46 | GGAGTCTGCT | 1

Row | Sequence | switch fluorescence ratio
47 | GTTTAGCGTC | 1
48 | TCAATAGTTT | 0.993
49 | ACCACTTGAG | 1.07
50 | GGTCCATTCC | 1.06
51 | CGCTAGGGTC | 1.05
52 | CCTTTGGGAT | 1
53 | ATATAAAGCA | 0.971
54 | GATATTGGAT | 1.01
55 | CTTAAAATTG | 1.03
56 | AAGAGCTTGG | 1
57 | CTACTCTCTG | 1.05
58 | AGAGTGCTGC | 1.05
59 | ACGATTGCA | 1.34
60 | TTCGCAGAAA | 1.04
61 | AGAGAAAGAT | 0.994
62 | AAATTGAAGT | 1.02
63 | GGGGTACCCC | 1.01
64 | AGTTAGTGTC | 0.996
65 | GTCCGGAATG | 2.54
66 | AGAGTACATT | 1.03
67 | GGAGCGGAG | 1.03
68 | TTGCCGCGGG | 0.971
69 | CTTCCCAAGT | 1.2

Row | Sequence | switch fluorescence ratio
70 | GCTTTTGATA | 0.975
71 | GAAGGCCATC | 0.982
72 | CGCGTCTGCG | 0.984
73 | CCTAAAAGGT | 1.04
74 | TAAAATGAAC | 0.951
75 | CGACTCAGCA | 2.18
76 | TAGGAGGACG | 1.07
77 | CATATGTACC | 1.08
78 | CATATCCCGT | 0.974
79 | GGGGAGATCA | 0.964
80 | CCCGGT | 1
81 | AGAATTTCTG | 0.976
82 | CCCGGTACAT | 1.03
83 | GTCAGTTCGT | 1.02
84 | TATTCCCTGT | 1.02
85 | ATACGGGGGA | 0.991
86 | AGCGGGCTG | 0.99
87 | AGAAGTGTTC | 0.988
88 | CCCCCACAGT | 2.13
89 | TATCGAAGAG | 1.04
90 | CATTAGTGAG | 0.938
91 | TGTGTCATAG | 0.978
92 | AAGATAAGTG | 0.963

Row | Sequence | switch fluorescence ratio
93 | TTTGTGGCCT | 1.02
94 | GTTCTTCA | 1.02
95 | ATATCATACA | 1.01
96 | AGAGACAAAT | 1.02
97 | TATCCAGGCC | 0.993
98 | TGATGTAGCT | 1.01
99 | GCATGAAAGT | 0.945
100 | CTGGTACTCG | 1.03
101 | ATTAGTAATG | 1.05
102 | ACTCATAGGG | 1.13
103 | ACTCGGCCA | 1.42
104 | AACACCGTCG | 1
105 | CGCCCGTATC | 1.13
106 | GCTGGCCCGT | 0.96
107 | TTGACCGTAT | 1.05
108 | GGATGACGG | 0.949
109 | GTTCATAGGT | 0.977
110 | ACTGGAAGTT | 0.925
111 | CGTCGATCGG | 1.03
112 | CCCACTTGCA | 1.07
113 | AGTGATTATC | 1.02
114 | AAAACGACGT | 1.02
115 | TGTAGACTGT | 1.02

Row | Sequence | switch fluorescence ratio
116 | TTACTCTTAC | 1.13
117 | TAAGAAGGT | 1
118 | GCGCAAATCT | 1.01
119 | ATCAATACTT | 1.14
120 | GTCAGAAATA | 0.996
121 | GCGCACACAG | 1.05
122 | CGTAGATTCA | 1.15
123 | AACTATTTTT | 0.968
124 | AGTCCTATAT | 1.01
125 | ATGGTAGCTC | 1.01
126 | CAGGAGTCGA | 1.06
127 | GACATTCGG | 1.01
128 | ATTGTTTGAC | 1.05
129 | AGTCCCAGGG | 1.24
130 | TTGACCAGAA | 1.02
131 | TTCGTCTGAC | 1.03
132 | AAACGCAGC | 1.25
133 | TCGGGAGCGG | 0.996
134 | GGTACGCTG | 0.978
135 | ACATGCTCAG | 1.07
136 | AAGGCGGCTG | 0.984
137 | ACTATGGGCT | 0.969
138 | AGCACATAGG | 1.09

Row | Sequence | switch fluorescence ratio
139 | GCTCTAGATA | 1.17
140 | TTGTCAGGTA | 0.986
141 | AAGCAAACGT | 1.13
142 | AGAATTAAGT | 1.01
143 | CGGTGTCTTG | 0.963
144 | GAGATGTTAC | 0.981
145 | AGTTGGTCTT | 1.01
146 | CGTAACTGAT | 0.979
147 | GCTCCTGTTG | 0.977
148 | AATCGTCTAA | 1.02
149 | GCTCTAGTAT | 1
150 | AGGGGACCAG | 1.16
151 | GGGAGGAAT | 0.991
152 | TCCATTGCAT | 1.45
153 | AAGGCACTTC | 1.14
154 | AGGCTCCCGA | 0.973
155 | GGGACACCCG | 0.951
156 | TATTCACCCA | 1.09
157 | ACAACAGATA | 0.98
